The whole screen tested about 43,000 compounds, of which about 200 (0.47%) were called active. Not shown: some 12% with an inconclusive outcome. Calls come from the whole dose curve; as a rule, active = well fitted cell-killing curve with a large enough effect; inconclusive = small, poorly fitted or top-dose-only effect, or effect the other way; inactive = flat fitted curve, though single readings scatter. Some of the results follow.
% is set by controls: 0 for no effect and ±100 for the full control effect.

This test is described as follows: Cell viability qHTS assay in S16 Pmp22-F2sN cells. Note: nearly all actives have a fitted effect of over 65% in size. Particulars: S16 Pmp22-F2sN Schwann cells viability, CellTiter-Glo, 24 h; series mostly up to 57.5 µM; activity change, negative = cytotoxicity: at the top concentration. In outline:
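S16 Pmp22-F2sN Schwann cells (500-1,000/well) in phenol-red-free DMEM with 10% FBS received 23 nL compound by pin tool for 24 h at 37 °C. Viability was then read as CellTiter-Glo luminescence after 15 min at room temperature.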
With `Cc1ccc(CNCc2c(C(=O)O)c(C)n(Cc3ccc(C)cc3)c2C)cc1`, the “activity change, negative = cytotoxicity” value is inactive: 15.5%. `O=C(Nc1c(C(=O)c2ccc(F)cc2)oc2ccccc12)c1cc(-c2ccccc2)on1`: the “activity change, negative = cytotoxicity” value was inactive: 0.396%.

`CCOc1ccc(CNC(=O)c2ccc3nc(CC)c(CC)nc3c2)cc1OC`: the “activity change, negative = cytotoxicity” value is inactive: -5.96%. Consider `CCc1ccc(S(=O)(=O)c2c(C(=O)c3ccc(C)c(C)c3)cnc3ccccc23)cc1`, for which the “activity change, negative = cytotoxicity” value is inactive: -2.82%. `COc1cccc(N2CCN(c3ccc4nnc(CCC(=O)O)n4n3)CC2)c1`: the “activity change, negative = cytotoxicity” value is inactive: 18%. `CCn1c(=O)cc(OCC(=O)Nc2cc(OC)c(OC)c(OC)c2)c2ccccc21`: the “activity change, negative = cytotoxicity” value was inactive: -7.13%. Under `COCCNC(=O)CSc1nc2ccccc2nc1Cc1ccc(C)cc1` stands inactive: 14.4%; under `COc1ccc(CCNC(=O)CCCCCn2c(SCC(N)=O)nc3cc4c(cc3c2=O)OCO4)cc1OC`, inactive: 12.3%.

On to `CCN(CC)S(=O)(=O)c1ccc2c(c1)N(CC(=O)Nc1ccc(F)cc1)C(=O)CO2`, for which the “activity change, negative = cytotoxicity” value is inactive: -7.98%. As to `Cc1ccc(S(=O)(=O)N2CCCc3cc(NC(=O)c4ccccc4Cl)ccc32)cc1`, the “activity change, negative = cytotoxicity” value was inactive: -8.33%. Take `Cc1ccc(C)c(N(C)C(=O)C2CCN(c3ncnc4c3nc3n4CCCCC3)CC2)c1`: the “activity change, negative = cytotoxicity” value was inactive: -1.23%. Consider `O=C(NCC(c1cccnc1)N1CCN(Cc2ccccc2)CC1)C(=O)Nc1cccc(F)c1` (stereo unspecified), for which the “activity change, negative = cytotoxicity” value was inactive: -18%. With `CCOC(=O)CC(NC(=O)Cn1nnc(-c2ccc(C(F)(F)F)cc2)n1)c1ccc(C)cc1` (stereo unspecified), the “activity change, negative = cytotoxicity” value is inactive: 6.75%.

As for `O=C(CC1Oc2ccc(Cl)cc2NC1=O)NCc1ccccc1` (stereo unspecified), the “activity change, negative = cytotoxicity” value is inactive: 3.22%. Under `COc1ccc(N2CCN(C(=O)c3ccc4nc(N5CCC(C)CC5)sc4c3)CC2)cc1` stands inactive: -9.21%. On to `Cc1ccc(Cl)cc1N(C)C(=O)c1cnc(N2CCOCC2)c2ccccc12`, for which the “activity change, negative = cytotoxicity” value is inactive: 18.1%. For the compound `CCN(CC)C(=O)C1CCCN(c2ncnc3onc(C)c23)C1` (stereo unspecified), the “activity change, negative = cytotoxicity” value was inactive: -4.33%. Under `COc1ccc2nc(N3CCN(C(=O)C4CC4)CC3)sc2c1` stands inactive: 2.23%; under `COc1ccc(NC(=O)N2CCc3c([nH]c4ccc(OC)cc34)C2c2ccc(OC)cc2)cc1` (stereo unspecified), inactive: -21.2%; under `COC(=O)c1cc2oc3ccccc3c2n1Cc1c(F)cccc1Cl`, inactive: -0.825%. Regarding `CCc1cccc(NC(=O)CN2CCCN(Cc3cccc(C)c3)S2(=O)=O)c1`, the “activity change, negative = cytotoxicity” value was inactive: 6.46%. As for `CC(NC(=O)c1sc2ncccc2c1-n1cccc1)c1ccccc1` (stereo unspecified), the figure is inactive: 2.77%; as for `COc1cccc(-c2nc3c(C#N)c[nH]n3c2NC2CCCCC2)c1OC`, inactive: -21.9%.

Take `O=C(NCCS(=O)(=O)N1CCN(c2ccc(F)cc2)CC1)c1cc(=O)c2ccccc2o1`: the “activity change, negative = cytotoxicity” value is inactive: -2.11%. For the compound `COc1ccccc1N1CCN(S(=O)(=O)c2cc3[nH]c(=O)c(=O)[nH]c3cc2C)CC1`, the “activity change, negative = cytotoxicity” value was inactive: 8.79%.

`Cc1ccc2occ(CC(=O)N(Cc3ccc(N(C)C)cc3)C3CCS(=O)(=O)C3)c2c1` (stereo unspecified): the “activity change, negative = cytotoxicity” value was inactive: 2.66%. As for `CCOc1ccc(CNC(=O)CCC(=O)N2CCSc3ccccc32)cc1`, the figure is inactive: 0.342%.

Take `CCN(CC)c1ccc(NC(=O)CN2CCN(CC(=O)Nc3ccccc3OC)CC2)cc1`: the “activity change, negative = cytotoxicity” value was inactive: -11.6%.

As for `COc1ccccc1CNC(=O)c1ccc(CN2CC(=O)N3CCCCC3C2=O)cc1` (stereo unspecified), the “activity change, negative = cytotoxicity” value is inactive: 1.71%. Under `Cc1ccc(C)c(NC(=O)N2CCC(N3CCN(Cc4ccc(F)cc4)C(=O)C3=O)CC2)c1` stands inactive: -3.47%; under `COc1ccccc1C(=O)NCC1(N2CCN(C)CC2)CCCCC1`, inactive: 1.53%. In the case of `Cc1cc2c(cc1S(=O)(=O)N(C)CC(=O)Nc1cccc(C#N)c1)OCC(=O)N2`, the “activity change, negative = cytotoxicity” value was inactive: -1.43%. Under `CC1=Nc2cc(C(=O)NC3CCCC3)ccc2Sc2ccc(Br)cc21` stands inactive: 2.61%; under `CCOC(=O)c1cccc(NC(=O)CCn2nc(C)c3c(C)n(-c4ccccc4)nc3c2=O)c1`, inactive: -0.021%.

As to `COCCCNC(=O)C1CCCN(S(=O)(=O)c2ccc3c(c2)oc(=O)n3C)C1` (stereo unspecified), the “activity change, negative = cytotoxicity” value was inactive: -1.48%. Under `CCOCCCNC(=O)c1c[nH]c2ccc(S(=O)(=O)Nc3cccc(Cl)c3C)cc2c1=O` stands inactive: -7%. Under `CCOC(=O)N1CCc2c(sc3c2c(=O)n(-c2ccc(Cl)cc2)c(=O)n3Cc2cccc(C)c2)C1` stands inactive: 1.81%; under `Cn1c(=O)oc2cc(S(=O)(=O)N3CCCC(C(=O)N4CCN(c5ccccc5F)CC4)C3)ccc21` (stereo unspecified), inactive: -0.737%; under `CCOCCCn1c(SCC(=O)NCCCOC)nc2c(sc3ccccc32)c1=O`, inactive: -12.8%. Take `Fc1ccc(Nc2ncnc3c2nc2n3CCCC2)cc1`: the “activity change, negative = cytotoxicity” value is inactive: -6.2%.

On to `Cc1c(NC(=O)c2ccccc2)cc(C(C)C)c(O)c1S(=O)(=O)c1ccc(Cl)cc1`, for which the “activity change, negative = cytotoxicity” value was inactive: 6.97%. For the compound `COC(=O)c1ccc(NS(=O)(=O)c2ccc3c(c2)n(C)c(=O)c(=O)n3C)cc1`, the “activity change, negative = cytotoxicity” value is inactive: -5.3%. Under `CCOC(=O)c1ccc(CN(Cc2ccc(F)cc2)S(=O)(=O)c2ccc(F)c(C(=O)Nc3ccccc3C(F)(F)F)c2)cc1` stands inactive: -6.2%; under `Cn1c2c(c(=O)n(C)c1=O)C(c1ccccc1C(F)(F)F)CC(=O)N2` (stereo unspecified), inactive: 18.3%; under `Cn1c(COc2ccccc2C(C)(C)C)nc2ccccc21`, inactive: -1.82%. With `COc1ccc(S(=O)(=O)c2cc3cc(C(C)(C)C)cc(O)c3oc2=O)cc1`, the “activity change, negative = cytotoxicity” value is inactive: -23.2%. As for `CCCCCn1c(=N)c(S(=O)(=O)c2ccc(C)cc2)cc2c(=O)n3cc(C)ccc3nc21`, the figure is inactive: 4.19%. Under `O=C(c1ccc2c(c1)N(Cc1cccc(Cl)c1)C(=O)c1ccccc1S2(=O)=O)N1CCc2ccccc21` stands inactive: 11.6%.

Turning to `CCc1ccccc1N(CC)C(=O)C(=O)Nc1ccc2nc3n(c(=O)c2c1)CCCCC3`, the “activity change, negative = cytotoxicity” value was inactive: -19.7%. Under `CCNC(=O)CC1C(=O)N(c2ccc(F)cc2)C(=O)N1Cc1ccc(OC)c(OC)c1` (stereo unspecified) stands inactive: 0.108%; under `Cc1ccc(C(=O)N2CCN(c3cccc(Cl)c3)CC2)cc1-n1c(C)nc2cccnc21`, inactive: -27.2%. Under `Cc1ccc(NC(=O)CSc2nnc(-c3cc4occc4n3C)n2-c2ccccc2C)c(C)c1` stands inactive: -3.35%; under `COc1ccc(-n2c(SC)nc3sc4c(c3c2=O)CCN(C(C)=O)C4)cc1`, inactive: 2.85%; under `FC(F)(F)c1cccc(N2CCN(c3nc4ccccc4n4cnnc34)CC2)c1`, inactive: -12.5%. On to `CCS(=O)(=O)N1CCc2cc(C(=O)NC(C)c3ccccc3)ccc21` (stereo unspecified), for which the “activity change, negative = cytotoxicity” value is inactive: 24.1%. Turning to `O=c1c2sc3ccccc3c2n(Cc2cccc(C(F)(F)F)c2)c(=O)n1-c1ccccc1`, the “activity change, negative = cytotoxicity” value is inactive: 7.42%. Under `Cc1ccc2c(c1)N(C(=O)Nc1ccc(Br)cc1F)CCO2` stands inactive: 2.86%; under `Cc1ccn2c(=O)cc(COc3ccc(NC(=O)C(C)(C)C)cc3)nc2c1`, inactive: 13.8%; under `COC(=O)c1ccccc1NC(=O)CSc1n[nH]c(C)n1`, inactive: 8.74%.

As to `COc1ccc(OC)c(CNS(=O)(=O)c2cc(-c3onc(C)c3C)ccc2C)c1`, the “activity change, negative = cytotoxicity” value was inactive: 3.04%.

With `CCN(CC)C(=O)c1sc2c(c1C)c(=O)n(-c1ccc(C)c(C)c1)c(=O)n2CC(=O)Nc1ccc(OC)cc1OC`, the “activity change, negative = cytotoxicity” value was inactive: -15.5%.

Turning to `O=C(c1ccccc1)N1CCC(c2nc3ccccc3o2)CC1`, the “activity change, negative = cytotoxicity” value is inactive: -5.59%. Under `COc1ccc(CCNC(=O)c2cnn(-c3cccc(C)c3)c2C2CCNCC2)cc1OC` stands inactive: 1.49%; under `CN1C(=O)Cc2cc(S(=O)(=O)CCC(=O)Nc3ccc(Cl)cc3)ccc21`, inactive: -9.9%.

For `CC(=O)c1ccc(NC(=O)c2cc3c([nH]c2=O)CC(c2ccccc2)CC3=O)cc1` (stereo unspecified), the “activity change, negative = cytotoxicity” value is inactive: -10.9%. On to `CCOc1ccc2c(c1)c(=O)c(C(=O)c1ccccc1)cn2Cc1ccccc1F`, for which the “activity change, negative = cytotoxicity” value was inactive: 1.62%. Turning to `Cc1ccc(S(=O)(=O)c2[nH]c(-c3ccccc3)nc2SC(C)C(=O)O)cc1` (stereo unspecified), the “activity change, negative = cytotoxicity” value was inactive: -2.15%.

In the case of `Cc1cc(C)n2c(Nc3ccc4c(c3)OCCO4)c(-c3ccccc3)nc2n1`, the “activity change, negative = cytotoxicity” value was inactive: -8.09%. Turning to `COc1ccc(N2CCN(CCCNC(=O)c3nnc(Cc4ccccc4Cl)o3)CC2)cc1`, the “activity change, negative = cytotoxicity” value is inactive: 7.4%. As for `COc1ccc(/C=C/C(=O)Nc2cc(-c3nc4ccccc4o3)ccc2OC)cc1`, the “activity change, negative = cytotoxicity” value is inactive: 11.1%. Under `CC(=O)c1ccc(NC(=O)CSc2nnc(-c3ccncc3)n2-c2ccccc2)cc1` stands inactive: 22.9%; under `COCCN1C(=O)N(c2cccc(OC)c2)C(=O)C1CC(=O)Nc1ccccc1` (stereo unspecified), inactive: 5.63%. As for `O=C(NCc1ccc(Cl)cc1)C(=O)NCC(c1ccc2c(c1)OCO2)N1CCOCC1` (stereo unspecified), the figure is inactive: 16.9%; as for `COc1cc2ccccc2cc1C(=O)N1CCN(c2nc3c(F)cccc3s2)CC1`, inactive: -0.189%; as for `CC(=O)Nc1ccc(NC(=O)c2csnn2)cc1`, inactive: -3.2%. Under `CCCCc1nn2c(=O)cc(COC(=O)c3cccc(NC(=O)c4cccs4)c3)nc2s1` stands inactive: 2.03%. `CC(NC(=O)CCc1cn(Cc2ccccc2Cl)c2ccccc12)c1ccccc1` (stereo unspecified): the “activity change, negative = cytotoxicity” value is inactive: -3.26%. Under `O=C(NCCc1ccccc1)c1ccc(CSc2nc3cccnc3n2Cc2ccccc2)cc1` stands inactive: -8.7%; under `COc1ccc(C(CC(=O)Nc2ccccn2)N2Cc3ccccc3C2=O)cc1OC` (stereo unspecified), inactive: 2.11%. Take `CCc1ccccc1NC(=O)Cn1nnc(C(=O)NCc2ccco2)c1N`: the “activity change, negative = cytotoxicity” value was inactive: -16.1%. Regarding `CCOC(=O)c1nnc2c(-c3ccc(Cl)cc3)c(C)nn2c1N`, the “activity change, negative = cytotoxicity” value was inactive: -0.675%. Under `CC(C)CN(c1ccccc1)S(=O)(=O)c1nnc(NC(=O)C2CCCCC2)s1` stands inactive: 4.14%. Under `O=C(NCCO)C(=O)NCC(c1ccc2c(c1)OCO2)N1CCOCC1` (stereo unspecified) stands inactive: 9.63%.

As for `COc1ccc(/C=C/c2nc(C#N)c(N3CCC(C(N)=O)CC3)o2)cc1OC`, the “activity change, negative = cytotoxicity” value is inactive: 0.21%.

`Cc1ccc(-c2nc(CS(=O)(=O)CC(=O)NC(C)CCc3ccccc3)c(C)o2)cc1` (stereo unspecified): the “activity change, negative = cytotoxicity” value is inactive: 2.13%. Under `CCOC(=O)C1CCN(c2cc3c(cc2NC(=O)c2ccccc2Cl)n(C)c(=O)n3C)CC1` stands inactive: -6.91%; under `O=C(O)CCc1ccc(-c2ccc(Br)cc2)n1-c1ccccc1O`, inactive: 8.69%. Under `CCOCCCNC(=O)c1ccc(-c2nc(CS(=O)(=O)c3ccccc3)c(C)o2)cc1` stands inactive: -22.6%; under `CNC(=O)C1CCCN(c2nnc(C)c3c(C)n(-c4ccccc4)nc23)C1` (stereo unspecified), inactive: 0.631%. Regarding `O=C(Nc1ccc(F)c(Cl)c1)c1cc(S(=O)(=O)NCc2ccc3c(c2)OCO3)ccc1F`, the “activity change, negative = cytotoxicity” value was inactive: -6.37%. As for `Cc1cc2nc(-c3ccc(NC(=O)c4ccc(OCC(C)C)cc4)cc3)oc2cc1C`, the figure is inactive: 0.313%. As for `CCOc1cccc2sc(N(Cc3cccnc3)C(C)=O)nc12`, the figure is inactive: -15.8%; as for `CCCCN(CC)CCNC(=O)Cn1cnc2sc(C)c(S(=O)(=O)N3CCN(c4ccccc4OC)CC3)c2c1=O`, inactive: -2.4%. As for `CC(C)Cc1nn2cc(-c3cccc(Br)c3)nc2s1`, the figure is inactive: -4.03%; as for `CCOc1ccc(N2CC(c3nc4ccccc4n3CCOc3ccc(OC)cc3)CC2=O)cc1` (stereo unspecified), inactive: -11.1%. For the compound `CCS(=O)(=O)NCCc1sc2nc(-c3ccc(OC)cc3)nn2c1C`, the “activity change, negative = cytotoxicity” value is inactive: -28.1%.

The values are drawn from PubChem BioAssay AID1508642 (National Center for Advancing Translational Sciences (NCATS), 2021).
